According to PubChem BioAssay AID485294 (National Center for Advancing Translational Sciences (NCATS), 2010):
About 150 (0.041%) of roughly 370,000 compounds were called active. This list was built around the results that the source calls inconclusive (neither active nor inactive); the mix of calls is not that of the screen. Calls follow the shape of the dose curve; as a rule, active = well fitted inhibition curve with a large enough effect; inconclusive = small, poorly fitted or top-dose-only effect; inactive = flat fitted curve, though single readings scatter. Potencies of inconclusive entries are left out as doubtful fits.

Target: Beta-lactamase (Escherichia coli (strain K12)) (UniProt P00811)
Experiment: qHTS Inhibitors of AmpC Beta-Lactamase (assay with detergent); also: nearly all actives have a fitted effect of over 25% in size
Settings: AmpC hydrolysis of nitrocefin, absorbance 480 nm, 0.01% Triton; series mostly up to 114 µM
Summary of the method: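 AmpC (5.3 nM in the dispensed reagent) in 20 mM phosphate pH 7.0 with 0.01% (detergent screen) or 0.0001% Triton X-100 was preincubated with compounds for 15 min at room temperature. Nitrocefin was then added from an 800 uM solution, and hydrolysis was followed at 480 nm.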
Potency is read from the fitted curve at half-maximal effect; tags tell the direction and shape of the fitted curve.

Sequence of UniProt P00811 (P00811 whole entry, looked up): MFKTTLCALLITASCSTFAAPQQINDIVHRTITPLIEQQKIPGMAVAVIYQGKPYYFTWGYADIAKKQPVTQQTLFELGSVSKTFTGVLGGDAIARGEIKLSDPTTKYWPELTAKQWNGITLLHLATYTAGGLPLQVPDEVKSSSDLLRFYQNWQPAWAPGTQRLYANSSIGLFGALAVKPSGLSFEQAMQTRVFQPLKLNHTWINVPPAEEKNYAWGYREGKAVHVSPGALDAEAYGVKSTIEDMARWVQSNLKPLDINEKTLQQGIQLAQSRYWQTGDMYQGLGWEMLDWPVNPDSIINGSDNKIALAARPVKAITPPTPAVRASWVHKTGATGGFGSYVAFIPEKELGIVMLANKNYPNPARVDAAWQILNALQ

SMILES	Potency
COc1ccc(NC(=O)c2ccc3c(c2)C(=O)N(Cc2cccnc2)C3=O)cc1	inconclusive [inhibitor, full curve]
Cc1cccc(NC(=O)C2CC(=O)OC23CCCC3)c1 (stereo unspecified)	inconclusive [inhibitor, partial curve, poor fit]
Cc1oc(-c2ccccc2F)nc1CS(=O)CC(=O)NCc1ccccc1 (stereo unspecified)	inconclusive [inhibitor, partial curve]
Cc1ccc(NC(=O)CSc2nnc(C3CCCCC3)n2N)cc1F	inconclusive [inhibitor, full curve, poor fit]
Cc1cc2n(n1)CCCN2C(=O)Nc1ccccc1F	inactive
CCOC(=O)c1sc2c(c1C)c(=O)c(C(=O)OCC)cn2CC	inactive
CC(C)(C)NC(=O)CN(C(=O)CCC(=O)Nc1nccs1)c1cccc(C(F)(F)F)c1	inconclusive [inhibitor, partial curve, poor fit]
Cc1ccc(S(=O)(=O)N(c2cccc(C(F)(F)F)c2)C2C=CS(=O)(=O)C2)cc1 (stereo unspecified)	inconclusive [inhibitor, full curve, poor fit]
Cc1cc(C)c(-n2c(SCCS(=O)(=O)c3ccc(F)cc3)n[nH]c2=O)c(C)c1	inactive
CCCCOc1ccc(C(=O)Nc2ccc(OCC(=O)N3CCOCC3)cc2)cc1	inconclusive [inhibitor, full curve, poor fit]
COC(=O)Sc1nc(N2CCOCC2)c2c(c1C#N)CC(C)(C)OC2	inactive
Cn1c(=NC(=O)c2ccc(F)cc2)sc2cc(Br)ccc21	inactive
CCc1nnc2c(N(C)C)nc3ccccc3n12	inconclusive [inhibitor, partial curve, poor fit]
Cc1oc(C(=O)O)cc1COc1cccc2ccccc12	inactive
CC(C)Sc1nc2ccc(N3C(=O)C4CCCCC4C3=O)cc2s1 (stereo unspecified)	inconclusive [inhibitor, full curve, poor fit]
COc1ccc(C(=O)COC(=O)c2cnc(C)cn2)c(OC)c1	inactive
C[C@H]1CCC(=O)N([C@H](CSc2ccccc2)Cc2ccccc2)CC1	inconclusive [inhibitor, full curve]
CCC1(C)N=C(c2ccc3c(c2)OCO3)CC(c2ccccc2O)N1 (stereo unspecified)	inconclusive [inhibitor, single point]
COc1cccc(C2N(c3ccc(Cl)cc3)C(=O)C3CCCN32)c1 (stereo unspecified)	inactive
O=C(CC1N=C2c3ccccc3N=C(SCc3cccc(Cl)c3)N2C1=O)NC1CCCCC1 (stereo unspecified)	inactive
Nc1cccc2c1C(=O)N(C(=O)c1ccc(S(=O)(=O)N3CCCCCC3)cc1)C2=O	inconclusive [inhibitor, single point]
O=C(N/N=C/c1cccc(O)c1)c1ccc(NC(=O)c2cccc([N+](=O)[O-])c2)cc1	inactive

SMILES	Potency
O=C(CSc1n[nH]c(-c2ccccc2)n1)c1ccc(O)c(O)c1	inconclusive [inhibitor, full curve, poor fit]
Cc1cc(N2CCOCC2)nc(-c2ccc(Br)cc2)n1	inconclusive [inhibitor, full curve, poor fit]
O=C(Nc1nccs1)c1ccc(COc2ccccc2Br)o1	inactive
Fc1ccc(COc2ccc(Cl)cc2/C=N/Nc2nc(N3CCCC3)nc(N3CCCC3)n2)cc1	inconclusive [inhibitor, full curve, poor fit]
Cc1cccc2c1cnn2C(=O)CCC(=O)N1CCC(C)CC1	inconclusive [inhibitor, partial curve, poor fit]
Cc1ccc(S(=O)(=O)N2CCC(=O)N(C(COCc3ccc(C(F)(F)F)cc3)C(C)C)CC2)cc1 (stereo unspecified)	inconclusive [inhibitor, full curve]
Cc1ccc(C)c(Cn2c(=O)n(CCCC(=O)NCc3ccco3)c(=O)c3sccc32)c1	inconclusive [inhibitor, full curve, poor fit]
COc1ccc(CC(=O)N/N=C/c2cc([N+](=O)[O-])cc(Br)c2O)cc1	inconclusive [inhibitor, partial curve, poor fit]
Cc1ccc(Nc2ncnc3sc(C)c(C)c23)cc1	inconclusive [inhibitor, full curve, poor fit]
O=C(Nc1ccc2nn(-c3ccc(F)cc3)nc2c1)c1cccc2c(Cl)cccc12	inactive
C[C@H](NC(=O)OC(C)(C)C)c1nnc(SCC(=O)Nc2ccc(Br)cc2)o1	inconclusive [inhibitor, partial curve]
COc1cc(NC(=O)CN2CCN(c3ccccc3)CC2)c(C)cc1[N+](=O)[O-]	inconclusive [inhibitor, full curve, poor fit]
CC1CCCCN1CCNC(=O)c1cnn2ccccc12 (stereo unspecified)	inconclusive [inhibitor, full curve, poor fit]
O=C(CC(c1ccccc1)c1ccccc1)NCC1CCCO1 (stereo unspecified)	inactive
Cc1cccn2c(=O)c(/C=C(\C#N)C(=O)NC3CCS(=O)(=O)C3)c(Oc3ccc(F)cc3)nc12 (stereo unspecified)	inconclusive [inhibitor, full curve, poor fit]
COCCNc1cc(N2CCN(C3CCCCC3)CC2)c2noc3c2c1C(=O)c1ccccc1-3	inactive
CC1(C)CC(=O)C2=C(C1)N(Cc1ccco1)C(=O)C2(NC(=O)C1CCCCC1)C(F)(F)F (stereo unspecified)	inactive
CCOc1ccc(N2C(=O)CC(N3CCN(C(=O)CN4CCCC4)CC3)C2=O)cc1 (stereo unspecified)	inconclusive [inhibitor, single point]
CCc1c(C)nc(SCC(=O)N2CCc3ccccc32)[nH]c1=O	inconclusive [inhibitor, full curve]
Cc1noc(NS(=O)(=O)c2ccc(NC(=O)c3cc(=O)c4ccccc4o3)cc2)c1C	inconclusive [inhibitor, full curve, poor fit]
CCOc1ccc(NC(=O)CSc2nccn(-c3ccc4c(c3)OCCO4)c2=O)cc1	inconclusive [inhibitor, full curve, poor fit]
Cc1sc2ncnc(N3CCC(C(=O)Nc4nc(-c5cccs5)cs4)CC3)c2c1C	inactive

SMILES	Potency
Cc1cccc(CS(=O)(=O)c2ncc(Cl)c(C(=O)NCc3ccc4c(c3)OCO4)n2)c1	inconclusive [inhibitor, full curve]
CN(C)c1ccc(C2CNC(c3ccc(Cl)c([N+](=O)[O-])c3)c3[nH]c4ccccc4c32)cc1 (stereo unspecified)	inconclusive [inhibitor, single point]
CC1CCCN(S(=O)(=O)c2ccc(NC(=O)CNC3CCCC3)cc2)C1 (stereo unspecified)	inconclusive [inhibitor, full curve]
COc1ccc(/C=C2\SC(=O)N=C2N)cc1	inconclusive [inhibitor, single point]
Cc1ccc(CNC(=O)[C@H](C)NC(=O)C2CCN(C(=O)[C@@H](N)CC(C)C)CC2)cc1	inconclusive [inhibitor, full curve, poor fit]
CC1(C)CC(=O)c2c(O)c(-c3ccccc3)c(=O)n(-c3ccccc3)c2C1	inconclusive [inhibitor, partial curve]
Fc1ccccc1-n1cn[nH]c1=S	inactive
N=c1c(C(=O)NC2CCCC2)cc2c(=O)n3ccccc3nc2n1C1CCCC1	inconclusive [inhibitor, full curve, poor fit]
CSc1cccc(NC(=O)C2CCN(S(=O)(=O)c3ccc4[nH]c(=O)ccc4c3)CC2)c1	inactive
Cc1cccc(NC(=O)CN(C)S(=O)(=O)c2ccc(Br)cc2)n1	inconclusive [inhibitor, full curve, poor fit]
COc1ccc2oc(=O)c(C(=O)N3CCN(c4ccccc4F)CC3)cc2c1	inconclusive [inhibitor, full curve]
COc1cc(Nc2nc(SCC#N)nc3ccccc23)cc(OC)c1OC	inconclusive [inhibitor, single point]
COc1ccc(C(=O)Nc2ccccc2C(=O)O)cc1NC(=O)C(c1ccccc1)c1ccccc1	inactive
O=C(/C=C/c1cccc([N+](=O)[O-])c1)Nc1ccccc1N1CCOCC1	inactive
Cc1ccc(-c2nn(-c3ccc(F)cc3)cc2C(=O)NC2CCC(O)CC2)cc1 (stereo unspecified)	inconclusive [inhibitor, full curve, poor fit]
CCOC(=O)c1[nH]c(C)c(CN(CCc2ccccc2)C(=O)CCC(=O)O)c1C	inactive
COc1ccccc1C(=O)Nc1nc2ccccc2[nH]1	inconclusive [inhibitor, full curve, poor fit]
O=c1oc2c(CN3CCOCC3)c(O)c(Cl)cc2c2c1CCCC2	inconclusive [inhibitor, full curve, poor fit]
O=C(NCc1cccnc1)C1CC(=O)N(c2ccc(F)cc2)C1 (stereo unspecified)	inconclusive [inhibitor, full curve]
O=C(COC(=O)/C=C/c1ccc(Cl)cc1Cl)Nc1ccc2c(c1)OCCO2	inconclusive [inhibitor, full curve, poor fit]
COc1ccc(NC(=O)CN(c2cccc(C)c2C)S(=O)(=O)c2ccccc2)cc1OC	inactive
CCOC(=O)N1CCC(N2C(=O)c3ccccc3C2Nc2cccnc2)CC1 (stereo unspecified)	inconclusive [inhibitor, full curve]
